# Measured values taken from the supplement of paper PMC8728848.
# The list shows a part of the results.
# Tests used:
# Experiment in all cases: glycan array binding signal (z-score within array); higher = stronger binding
# Conditions in all cases: glycan notation: IUPAC condensed, linker removed; mutation: E227A
# [1] = biological target: Neu5Ac(a2-3)Gal(b1-4)GlcNAc(b1-3)[Neu5Ac(a2-3)Gal(b1-4)GlcNAc(b1-6)]GalNAc
# How it was run: (§1)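 The binding signal is a Z-score computed within each array. Data were drawn from 3228 arrays in the Consortium for Functional Glycomics database, restricted to those with a known protein sequence. Scores were averaged over arrays of the same protein sequence at different concentrations or buffers, and over linkers, and negative values can be taken as non-binding.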
# [2] = biological target: Neu5Ac(a2-3)Gal(b1-4)GlcNAc(b1-6)GalNAc
# How it was run: as §1
# [3] = biological target: Neu5Ac(a2-3)Gal(b1-4)GlcNAc(b1-6)[Gal(b1-3)]GalNAc
# How it was run: as §1
# [4] = biological target: Neu5Ac(a2-3)Gal(b1-4)GlcNAc(b1-6)[Neu5Ac(a2-3)Gal(b1-3)]GalNAc
# How it was run: as §1
# [5] = biological target: Neu5Ac(a2-3)Gal(b1-4)GlcNAc6S
# How it was run: as §1
# [6] = biological target: Neu5Ac(a2-3)Gal(b1-4)[Fuc(a1-3)]GlcNAc
# How it was run: as §1
# [7] = biological target: Neu5Ac(a2-3)Gal(b1-4)[Fuc(a1-3)]GlcNAc(b1-2)Man
# How it was run: as §1
# [8] = biological target: Neu5Ac(a2-3)Gal(b1-4)[Fuc(a1-3)]GlcNAc(b1-3)Gal
# How it was run: as §1
# [9] = biological target: Neu5Ac(a2-3)Gal(b1-4)[Fuc(a1-3)]GlcNAc(b1-3)Gal(b1-4)GlcNAc
# How it was run: as §1
# [10] = biological target: Neu5Ac(a2-3)Gal(b1-4)[Fuc(a1-3)]GlcNAc(b1-3)Gal(b1-4)[Fuc(a1-3)]GlcNAc(b1-3)Gal(b1-4)[Fuc(a1-3)]GlcNAc
# How it was run: as §1
# [11] = biological target: Neu5Ac(a2-3)Gal(b1-4)[Fuc(a1-3)]GlcNAc(b1-3)GalNAc
# How it was run: as §1
# [12] = biological target: Neu5Ac(a2-3)Gal(b1-4)[Fuc(a1-3)]GlcNAc(b1-6)[Gal(b1-3)]GalNAc
# How it was run: as §1
# [13] = biological target: Neu5Ac(a2-3)Gal(b1-4)[Fuc(a1-3)]GlcNAc(b1-6)[Neu5Ac(a2-3)Gal(b1-3)]GalNAc
# How it was run: as §1
# [14] = biological target: Neu5Ac(a2-3)Gal(b1-4)[Fuc(a1-3)]GlcNAc6S
# How it was run: as §1
# [15] = biological target: Neu5Ac(a2-3)Gal6S(b1-4)GlcNAc
# How it was run: as §1
# [16] = biological target: Neu5Ac(a2-3)Gal6S(b1-4)[Fuc(a1-3)]GlcNAc
# How it was run: as §1
# Neu5Ac(a2-3)GalNAc = biological target: Neu5Ac(a2-3)GalNAc
# How it was run: as §1
# [17] = biological target: Neu5Ac(a2-3)GalNAc(b1-4)GlcNAc
# How it was run: as §1
# [18] = biological target: Neu5Ac(a2-3)[GalNAc(b1-4)]Gal(b1-4)Glc
# How it was run: as §1
# [19] = biological target: Neu5Ac(a2-3)[GalNAc(b1-4)]Gal(b1-4)GlcNAc
# How it was run: as §1
# [20] = biological target: Neu5Ac(a2-3)[GalNAc(b1-4)]Gal(b1-4)GlcNAc(b1-3)GalNAc
# How it was run: as §1
# [21] = biological target: Neu5Ac(a2-3)[Neu5Ac(a2-6)]GalNAc
# How it was run: as §1
# Neu5Ac(a2-6)Gal = biological target: Neu5Ac(a2-6)Gal
# How it was run: as §1
# [22] = biological target: Neu5Ac(a2-6)Gal(b1-3)GlcNAc(b1-3)[Gal(b1-4)GlcNAc(b1-6)]Gal(b1-4)Glc
# How it was run: as §1
# Neu5Ac(a2-6)Gal(b1-4)Glc = biological target: Neu5Ac(a2-6)Gal(b1-4)Glc
# How it was run: as §1
# [23] = biological target: Neu5Ac(a2-6)Gal(b1-4)GlcNAc
# How it was run: as §1
# [24] = biological target: Neu5Ac(a2-6)Gal(b1-4)GlcNAc(b1-2)Man
# How it was run: as §1
# [25] = biological target: Neu5Ac(a2-6)Gal(b1-4)GlcNAc(b1-2)Man(a1-3)Man(b1-4)GlcNAc(b1-4)GlcNAc
# How it was run: as §1
# [26] = biological target: Neu5Ac(a2-6)Gal(b1-4)GlcNAc(b1-2)Man(a1-3)[Gal(b1-4)GlcNAc(b1-2)Man(a1-6)]Man(b1-4)GlcNAc(b1-4)GlcNAc
# How it was run: as §1
# [27] = biological target: Neu5Ac(a2-6)Gal(b1-4)GlcNAc(b1-2)Man(a1-3)[GlcNAc(b1-2)Man(a1-6)]Man(b1-4)GlcNAc(b1-4)GlcNAc
# How it was run: as §1
binder,measurement,setting,value
"Epa1-NP-mutant-E227A (Candida glabrata), Q6VBJ0 (protein) MILNPALFLNKCVCIYTTLILLLLTNGGYATSSNDISLASKDPTTFPLGCSPDITTPKKGLSMELYSYDFRKKGSYPCWDAAYLDPNYPRTGYKSHRLLAKVDGVTGNINFYYHATKGCTPQLGHLPASYNYPKPLTMTNFTMLLYGYFRPKVTGFHTFTISADDLLFVNFGAGNAFDCCRRDSSADHFGNYQAYAIWGSKTAKDELTVHLDAGVYYPIRLFYNNRAYDGALSFTFKTESNENTVSDFSEYFFSLDDTEEGCPGLISYDSSCASVKTSKIIGIDYHTETPNENLVPITKTIYHLGIPCTGTTTTPLCGSGFYDPLANKCVTINTSSTSSVTKTTSHTTSKEVSFHSSISSQKTLIPKSIPSPYGPIKSQSIPTEMETSSEISSSEYAFSDVISTPSHSPYTKKHSSLNSSSYTSTVIHSLTSYSISQGIFSTSLSEQNITSKSSTDKFSTATSMSNNITQSSIIISQFSTNNENYTTTSMHTSSDKISTETLNNSISTTTSILFSNSSTILKNNTTIISSDKDTHYHPVNPTIVCSTNKTEIICASITQPSISNSNNHWSSSVLKFNSTTVRSTLPSSAGSNETSINVPFSSSTESNTSTSSTSTSNSKMVRSTLPSSAGSNETSISVPFSSSTESNTSTSSTSTSNSKMVRSTLPSSAGSNETSINVPFSSSTESNTSTSSTSTSNSKTVRSTPFSSAGIIMTSLSQRNNKSASSYASSNSKCYNTADSCRKVHSTPSYLLTSSYTSEGVDYDCSLVSTKLKINDTNCVNNKHTTKSCLKTSVTTTIPTLEIKTARKSSSNTIGLHSYPTSSPNKSISSAPIIGYISSFKTIKTASPSYQTSDLTTITTITSLNNPGSTAVENTHESNDKSRKTSSNDISSKHSVIKETKDAVESSNKSHQTNTLKCSSIIIASSSHNSYESLGGTTLTLTLSKVYSPQNNDTLPFLEISEVNPSRTVLPESSKMMQYLTSTEERNKTARNTIATNIVSISTFHFEGEGNAIRMGYTQLLLMLIGIIVMNIGT",glycan array binding signal (z-score),[1],-0.186
same,glycan array binding signal (z-score),[2],-0.176
same,glycan array binding signal (z-score),[3],0.715
same,glycan array binding signal (z-score),[4],-0.222
same,glycan array binding signal (z-score),[5],-0.172
same,glycan array binding signal (z-score),[6],-0.193
same,glycan array binding signal (z-score),[7],-0.224
same,glycan array binding signal (z-score),[8],-0.199
same,glycan array binding signal (z-score),[9],-0.163
same,glycan array binding signal (z-score),[10],-0.219
same,glycan array binding signal (z-score),[11],-0.12
same,glycan array binding signal (z-score),[12],-0.152
same,glycan array binding signal (z-score),[13],-0.16
same,glycan array binding signal (z-score),[14],-0.21
same,glycan array binding signal (z-score),[15],-0.211
same,glycan array binding signal (z-score),[16],-0.204
same,glycan array binding signal (z-score),Neu5Ac(a2-3)GalNAc,-0.211
same,glycan array binding signal (z-score),[17],-0.23
same,glycan array binding signal (z-score),[18],-0.186
same,glycan array binding signal (z-score),[19],-0.187
same,glycan array binding signal (z-score),[20],-0.209
same,glycan array binding signal (z-score),[21],-0.162
same,glycan array binding signal (z-score),Neu5Ac(a2-6)Gal,-0.148
same,glycan array binding signal (z-score),[22],-0.175
same,glycan array binding signal (z-score),Neu5Ac(a2-6)Gal(b1-4)Glc,-0.183
same,glycan array binding signal (z-score),[23],-0.206
same,glycan array binding signal (z-score),[24],-0.178
same,glycan array binding signal (z-score),[25],-0.2
same,glycan array binding signal (z-score),[26],-0.204
same,glycan array binding signal (z-score),[27],-0.205
